From the supplement of paper PMC3334620
In all, about 33,000 sequences were measured (“E-score (-0.5 to 0.5)”: median about -0.017, highest 2% from about 0.3 on). The list shows a part of the results.

The sequences below were run against T1, Sut1 (UniProt P53032) (assay: PBM E-score (8-mer binding enrichment) (E-score (-0.5 to 0.5)); higher = stronger / more preferred TF binding; most listed sequences are background and not binding sites). Details: protein concentration: 200 nM; construct: GST-full length.
T1 sequence: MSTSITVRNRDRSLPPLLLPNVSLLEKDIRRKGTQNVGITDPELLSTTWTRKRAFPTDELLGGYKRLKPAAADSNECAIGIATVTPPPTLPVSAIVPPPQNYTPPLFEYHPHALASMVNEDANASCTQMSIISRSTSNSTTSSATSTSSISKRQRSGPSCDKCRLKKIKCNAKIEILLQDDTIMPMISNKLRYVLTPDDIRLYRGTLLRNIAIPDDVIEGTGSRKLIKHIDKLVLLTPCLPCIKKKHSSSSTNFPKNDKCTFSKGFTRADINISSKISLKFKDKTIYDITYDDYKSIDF
Method in brief: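 Using PURExpress in vitro transcription/translation, GST-tagged yeast transcription factors were made in full-length or DNA-binding-domain form. These were applied at about 100-200 nM to double-stranded universal all-10-mer Agilent arrays, and bound protein was detected with fluorescent anti-GST. Scans were normalised with masliner before the Universal PBM Analysis Suite assigned E-scores to ungapped eight-base words pooled with their reverse complements.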

First: CTCATCCA
Second: TTGGGAAA
The “PBM E-score” value of the first is lower: -0.124 for the first, 0.101 for the second.

First: CCCGGTAG
Second: GGCGCACA
The “PBM E-score” value of the first is higher: 0.0344 for the first, -0.147 for the second.

Going from GACGAGAA to AGAAAAGC, the “PBM E-score” value rises from 0.0679 to 0.155.

First: TAATATCA
Second: CGTAAAGC
The “PBM E-score” value of the first is higher: 0.306 for the first, -0.15 for the second.

Compared with AGGACACT, ACCGAGCC is higher in “PBM E-score” value: -0.0667 for the first, 0.0511 for the second.

Going from CCAATCGG to TACTAGGA, the “PBM E-score” value rises from -0.0231 to 0.0617.

First: CTTTCGTC
Second: AAATCTTA
The “PBM E-score” value of the first is lower: -0.0686 for the first, 0.11 for the second.

Going from CTGACATA to ACTATTCG, the “PBM E-score” value rises from -0.144 to 0.149.

Compared with CGGCACTA, CCGCATAA is higher in “PBM E-score” value: -0.0533 for the first, 0.208 for the second.

Going from CCAAGAAG to ACGTAGAC, the “PBM E-score” value falls from -0.0549 to -0.198.

Compared with GCCGACGA, CGATTCGC is higher in “PBM E-score” value: -0.101 for the first, -0.0157 for the second.

Compared with AGATGCGC, GATTGCAA is higher in “PBM E-score” value: -0.273 for the first, 0.0472 for the second.

First: ACAGTAGC
Second: AGAGGTCC
The “PBM E-score” value of the first is lower: -0.175 for the first, 0.111 for the second.

First: CTGAGAGC
Second: ACTATAAC
The “PBM E-score” value of the first is lower: -0.0782 for the first, 0.0883 for the second.

Compared with CGAACTAC, CGTCATAC is higher in “PBM E-score” value: 0.046 for the first, 0.12 for the second.

Going from GAGAGAGA to GCCTTTAA, the “PBM E-score” value rises from 0.0032 to 0.0866.

First: AATTCGGC
Second: AGACAACT
The “PBM E-score” value of the first is lower: -0.0483 for the first, 0.171 for the second.

First: CTGCGCGA
Second: ATATGTGG
The “PBM E-score” value of the first is lower: -0.042 for the first, 0.0773 for the second.

First: GCTTCGAA
Second: CTTCAGGC
The “PBM E-score” value of the first is higher: 0.191 for the first, -0.167 for the second.

First: CTACCGTC
Second: CTAGAGAG
The “PBM E-score” value of the first is higher: -0.0907 for the first, -0.142 for the second.

Going from GTGTAAGA to GGAACGAA, the “PBM E-score” value rises from 0.105 to 0.107.

Going from ACCCCTTA to CAAGGGTG, the “PBM E-score” value falls from -0.0235 to -0.317.

Going from GAGGTGTA to ATCATTCA, the “PBM E-score” value rises from -0.11 to 0.182.

Compared with CGATTAGC, AACGGATC is higher in “PBM E-score” value: -0.182 for the first, 0.206 for the second.

Compared with CGCTAGAG, GCGGATTA is higher in “PBM E-score” value: -0.0478 for the first, -0.0369 for the second.

First: TAAGGTAA
Second: GCTGCAGC
The “PBM E-score” value of the first is higher: 0.173 for the first, -0.237 for the second.

Going from CGGGTTAC to ACTTTGCT, the “PBM E-score” value rises from -0.213 to 0.0184.

Compared with TCCTTTAA, GAGTAGCC is lower in “PBM E-score” value: 0.108 for the first, -0.11 for the second.

Compared with CCCGCGTC, CGAGTGAC is lower in “PBM E-score” value: -0.0312 for the first, -0.116 for the second.

First: CCGCGAGC
Second: GCGTTACC
The “PBM E-score” value of the first is higher: 0.0862 for the first, -0.158 for the second.

Going from AATGTGCC to GGGAGACA, the “PBM E-score” value rises from -0.183 to 0.019.

Compared with GTGTCGCA, GCGACACA is lower in “PBM E-score” value: -0.116 for the first, -0.15 for the second.

Going from ATCGTAGG to CACCAGTC, the “PBM E-score” value falls from -0.0546 to -0.283.

Compared with ACTGTGGG, ATATAATG is higher in “PBM E-score” value: -0.316 for the first, 0.222 for the second.

Going from CCGGGCAA to CGTAGATA, the “PBM E-score” value rises from -0.119 to 0.0959.

First: AGATTGCA
Second: AGTGAAGC
The “PBM E-score” value of the first is lower: 0.062 for the first, 0.0756 for the second.

Going from AAGGGGGC to AAATCTGG, the “PBM E-score” value rises from -0.287 to 0.181.

Going from AGCTGAAC to GGTAAACA, the “PBM E-score” value rises from -0.0852 to 0.098.

Compared with TACTCGAA, AAAGCATC is lower in “PBM E-score” value: 0.068 for the first, 0.0666 for the second.

Going from AAGTAAGG to AGTTCCCC, the “PBM E-score” value falls from 0.108 to -0.142.

Compared with AATCGACC, ATGGGGAA is lower in “PBM E-score” value: -2e-05 for the first, -0.0455 for the second.

Going from GTGATCAC to AATGGGTA, the “PBM E-score” value rises from -0.114 to 0.136.

First: GCCCCTCC
Second: AGGACTTA
The “PBM E-score” value of the first is lower: -0.332 for the first, -0.0276 for the second.

Going from CCCAGTAC to CCTGCATA, the “PBM E-score” value rises from -0.255 to -0.155.

Going from AACGGTAT to CGCACAGC, the “PBM E-score” value falls from -0.0944 to -0.11.

Compared with CGCGGATC, GACTAAAC is lower in “PBM E-score” value: -0.0706 for the first, -0.0817 for the second.

First: CAAGCGTG
Second: TCTATACA
The “PBM E-score” value of the first is lower: -0.207 for the first, 0.111 for the second.

Compared with GGTGGCCA, GAAAGATA is higher in “PBM E-score” value: -0.171 for the first, 0.161 for the second.

First: AGTGGGCG
Second: CGTACTAA
The “PBM E-score” value of the first is lower: -0.0874 for the first, 0.156 for the second.

Compared with AATCCGAC, ACCCCCCA is lower in “PBM E-score” value: 0.0553 for the first, -0.275 for the second.

Compared with CTGTACTC, CGACTGAA is higher in “PBM E-score” value: 0.00796 for the first, 0.0692 for the second.

First: ACAATGGA
Second: ACGCTTCC
The “PBM E-score” value of the first is higher: 0.162 for the first, -0.043 for the second.

First: CGCTCCGA
Second: CGATTAGA
The “PBM E-score” value of the first is higher: 0.317 for the first, 0.115 for the second.

Going from GGTACCTA to AACCTCGT, the “PBM E-score” value rises from -0.043 to -0.0398.

First: ATCTTAGG
Second: AGACTAGG
The “PBM E-score” value of the first is lower: -0.239 for the first, -0.217 for the second.

Compared with GTGGTGGA, CCCACAGA is lower in “PBM E-score” value: -0.0882 for the first, -0.345 for the second.

First: CGGATAGA
Second: ATCAGATA
The “PBM E-score” value of the first is higher: 0.249 for the first, 0.126 for the second.

First: CAGAGACG
Second: AGTGAGAG
The “PBM E-score” value of the first is higher: -0.0321 for the first, -0.04 for the second.

Going from GCCCAGCA to ACCGCGGA, the “PBM E-score” value rises from -0.239 to 0.253.

First: ACTACCAA
Second: AGATAACC
The “PBM E-score” value of the first is lower: 0.0705 for the first, 0.0745 for the second.

Compared with AGGAAGAA, AGCTTTAC is higher in “PBM E-score” value: 0.0511 for the first, 0.101 for the second.

Going from CGTTGACA to ACGGGGAC, the “PBM E-score” value falls from -0.1 to -0.164.

Going from GAAAGAAC to ATATAGCC, the “PBM E-score” value falls from 0.209 to -0.0379.

First: CGGGTAGC
Second: GCCAGAAC
The “PBM E-score” value of the first is lower: -0.177 for the first, -0.147 for the second.

First: CTTGGCAC
Second: ACGTTTGA
The “PBM E-score” value of the first is lower: -0.046 for the first, 0.132 for the second.

Going from CTTGGCCA to GCCTGTAA, the “PBM E-score” value rises from -0.185 to -0.0718.

First: ATATCTAC
Second: CGGTTGTC
The “PBM E-score” value of the first is higher: 0.173 for the first, 0.098 for the second.

First: GCGACTAA
Second: ATCTTCCA
The “PBM E-score” value of the first is lower: -0.0293 for the first, 0.0315 for the second.

Compared with AGTTATAG, ATTACCTA is lower in “PBM E-score” value: 0.155 for the first, 0.104 for the second.

Going from AGCTCGAC to CCCAGGCC, the “PBM E-score” value falls from 0.0188 to -0.244.

Compared with AAAGTGGC, GATGGGTA is lower in “PBM E-score” value: 0.0209 for the first, 0.0208 for the second.

Going from AGTGTCCC to AATAATCG, the “PBM E-score” value rises from -0.086 to 0.0995.

Compared with ATCAGGTC, GCTCATAA is lower in “PBM E-score” value: 0.0613 for the first, -0.0972 for the second.

Compared with TATAGCGA, GGGCCATA is higher in “PBM E-score” value: -0.084 for the first, 0.0165 for the second.

Compared with CTTCGCAA, CACCAGCC is lower in “PBM E-score” value: -0.0605 for the first, -0.162 for the second.

Compared with CTTTGACA, ACGGATAC is higher in “PBM E-score” value: -0.00233 for the first, 0.212 for the second.

Compared with ACCGGTAG, TCTCTTAA is higher in “PBM E-score” value: -0.0124 for the first, 0.181 for the second.

Compared with AAACATGA, GGCCTGGA is lower in “PBM E-score” value: 0.0715 for the first, -0.251 for the second.

Going from CACAAGTC to CCGTCCCA, the “PBM E-score” value rises from -0.0924 to -0.0896.

First: ATGCTCGA
Second: ATGATAAT
The “PBM E-score” value of the first is lower: -0.0121 for the first, 0.273 for the second.

Compared with AGTGTGGC, ATGTGGCC is lower in “PBM E-score” value: 0.0458 for the first, -0.301 for the second.

Compared with CATTCCAG, GGAACCCA is lower in “PBM E-score” value: -0.0621 for the first, -0.318 for the second.

Compared with CATTATGG, CGCATGGA is lower in “PBM E-score” value: 0.0378 for the first, -0.162 for the second.

First: CCTTCGCG
Second: ATCTTGTC
The “PBM E-score” value of the first is higher: -0.0557 for the first, -0.0588 for the second.

Compared with CATTGTTA, CTCTCTGA is lower in “PBM E-score” value: 0.101 for the first, -0.212 for the second.

Going from CTAACCGA to CTGGGCGC, the “PBM E-score” value falls from 0.0355 to -0.22.
